Test results reported in patent US11278595B2, “Peptides comprising non-natural amino acids and methods of making and using the same” (Longevity Biotech, Inc., priority 2013, dated 2022).
Read-outs that look alike come from different tables or passages of the source. At least one peptide structure holds a part that was inferred or is arguable (an end, a ring closure or a residue). Numbered stars: 1 amine (or outer) side, 2 acyl side, 3 side chain; on linkers, the order of the positions; unused ones are H or OH. Square brackets hold non-standard residues; d marks the D form. Peptide text beside a SMILES is read from it. ξ: configuration not given here. ξ(4-Aminopyrrolidine-3-CO) = O=C(C1CNCC1N[*:1])[*:2]; β3hY = N[C@H](CC(=O)O)Cc1ccc(O)cc1; β3hT = C[C@@H](O)[C@H](N)CC(=O)O; β3hN = NC(=O)C[C@H](N)CC(=O)O; X3 = O=C(C1CCCC1N[*:1])[*:2]; β3hL = CC(C)C[C@H](N)CC(=O)O; β3hK = NCCCC[C@H](N)CC(=O)O; β3hV = CC(C)[C@H](N)CC(=O)O; Aib = CC(C)(N)C(=O)O; βAla = NCCC(=O)O

How the values were obtained:
VIPR1 (vpac1) = target: T1, VIPR1 (vpac1) (Homo sapiens, UniProt P32241); assay: cell-based cAMP assay (DiscoveRx HitHunter cAMP XS+, cAMP Hunter cell lines), agonist mode; settings: read-out: EC50 vpac1 (Molar)
T1 sequence (P32241 31-457): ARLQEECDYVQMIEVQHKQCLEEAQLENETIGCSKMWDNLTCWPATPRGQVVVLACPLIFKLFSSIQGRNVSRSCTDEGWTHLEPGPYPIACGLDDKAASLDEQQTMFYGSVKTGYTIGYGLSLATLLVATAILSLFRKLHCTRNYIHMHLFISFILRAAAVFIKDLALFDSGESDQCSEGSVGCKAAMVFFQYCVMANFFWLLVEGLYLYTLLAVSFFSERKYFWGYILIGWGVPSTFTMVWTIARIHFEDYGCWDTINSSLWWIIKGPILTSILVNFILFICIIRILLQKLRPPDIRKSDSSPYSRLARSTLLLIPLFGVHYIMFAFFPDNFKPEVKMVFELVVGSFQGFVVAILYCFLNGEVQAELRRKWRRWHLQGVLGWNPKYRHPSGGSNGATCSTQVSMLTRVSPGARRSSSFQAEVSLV

VIPR2 (vpac2) = target: T2, VIPR2 (vpac2) (Homo sapiens, UniProt P41587); assay: as above; settings: read-out: EC50 vpac2 (Molar)
T2 sequence (P41587 24-438): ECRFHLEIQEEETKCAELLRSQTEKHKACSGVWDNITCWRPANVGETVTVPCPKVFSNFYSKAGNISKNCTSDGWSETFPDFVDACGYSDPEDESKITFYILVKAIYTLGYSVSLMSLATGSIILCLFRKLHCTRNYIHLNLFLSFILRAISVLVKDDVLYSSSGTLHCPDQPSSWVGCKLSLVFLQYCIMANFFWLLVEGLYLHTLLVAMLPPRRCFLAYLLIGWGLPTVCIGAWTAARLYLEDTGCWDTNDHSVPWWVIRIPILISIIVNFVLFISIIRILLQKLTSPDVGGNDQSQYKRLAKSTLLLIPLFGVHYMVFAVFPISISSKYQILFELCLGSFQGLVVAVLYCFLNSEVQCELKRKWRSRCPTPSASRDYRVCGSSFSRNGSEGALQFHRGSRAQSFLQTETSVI

[1] = Table 3, VPAC1 selective analogs
[2] = Table 2, VPAC2 selective analogs

Row | EC50 (VIPR1 (vpac1); [1]) [nM] | EC50 (VIPR2 (vpac2); [1]) [nM] | EC50 (VIPR1 (vpac1); [2]) [nM] | EC50 (VIPR2 (vpac2); [2]) [nM] | Compound
1 | 71.2 | 50.3 |  |  | CC[C@H](C)[C@H](NC(=O)[C@H](C)NC(=O)[C@H](CC(N)=O)NC(=O)C[C@H](CC(C)C)NC(=O)[C@H](Cc1ccc(O)cc1)NC(=O)[C@H](CCCCN)NC(=O)[C@H](CCCCN)NC(=O)C[C@@H](NC(=O)[C@H](C)NC(=O)[C@H](CC(C)C)NC(=O)[C@H](CCC(N)=O)NC(=O)C[C@H](CCCCN)NC(=O)[C@H](CCCNC(=N)N)NC(=O)[C@H](CC(C)C)NC(=O)[C@H](CCCNC(=N)N)NC(=O)C[C@@H](NC(=O)[C@H](Cc1ccc(O)cc1)NC(=O)[C@H](CC(N)=O)NC(=O)[C@H](CC(=O)O)NC(=O)[C@@H](NC(=O)[C@H](Cc1ccccc1)NC(=O)C[C@@H](NC(=O)[C@H](C)NC(=O)[C@H](CC(=O)O)NC(=O)[C@@H](Cc1ccccc1)NC(=O)[C@@H](N)Cc1c[nH]cn1)C(C)C)[C@@H](C)O)[C@@H](C)O)C(C)C)C(=O)N[C@H](CC(=O)N[C@@H](CC(N)=O)C(N)=O)CC(C)C [LBT-V128, HfDAvFTDNYtRLRkQLAvKKYlNAIlN] (H-H[dF]DA[β3hV]FTDNY[β3hT]RLR[β3hK]QLA[β3hV]KKY[β3hL]NAI[β3hL]N-NH2; N-terminus assumed)
2 |  |  | 785 | 1.17 | CC(=O)N[C@@H](Cc1c[nH]cn1)C(=O)NC1CCCC1C(=O)N[C@@H](CC(=O)O)C(=O)N[C@@H](C)C(=O)NC1CCCC1C(=O)N[C@@H](Cc1ccccc1)C(=O)N[C@H](C(=O)N[C@@H](CCC(=O)O)C(=O)NC1CCCC1C(=O)N[C@H](CC(=O)N[C@H](C(=O)N[C@@H](CCCCN)C(=O)N[C@@H](CC(C)C)C(=O)N[C@@H](CCCNC(=N)N)C(=O)N[C@@H](CCCCN)C(=O)N[C@@H](CCC(N)=O)C(=O)N[C@H](CC(=O)N[C@@H](C)C(=O)N[C@@H](C)C(=O)NC1CNCC1C(=O)N[C@@H](CCCCN)C(=O)N[C@@H](Cc1ccc(O)cc1)C(=O)NC1CCCC1C(=O)N[C@@H](CC(N)=O)C(=O)N[C@@H](CC(=O)O)C(=O)N[C@@H](CC(C)C)C(=O)N[C@@H](CCCCN)CC(=O)N[C@@H](CCCCN)C(=O)NCC(=O)NCCC(=O)N[C@H](C(N)=O)[C@@H](C)O)CC(C)C)[C@@H](C)O)Cc1ccc(O)cc1)[C@@H](C)O (stereo partly drawn) [LBT-V217, Ac-HxDAxFTExyTKLRKQlAAzKYxNDLkKGgT] (Ac-H[X3]DA[X3]FTE[X3][β3hY]TKLRKQ[β3hL]AA[ξ(4-Aminopyrrolidine-3-CO)]KY[X3]NDL[β3hK]KG[βAla]T-NH2)
3 |  |  | > 1000 | 0.593 | CC(=O)N[C@@H](Cc1c[nH]cn1)C(=O)NC1CCCC1C(=O)N[C@@H](CC(=O)O)C(=O)N[C@@H](C)C(=O)N[C@H](C(=O)N[C@@H](Cc1ccccc1)C(=O)N[C@H](C(=O)N[C@@H](CCC(=O)O)C(=O)N[C@@H](CC(N)=O)C(=O)N[C@@H](Cc1ccc(O)cc1)C(=O)N[C@H](C(=O)N[C@@H](CCCCN)C(=O)N[C@@H](CC(C)C)C(=O)N[C@@H](CCCNC(=N)N)C(=O)N[C@@H](CCCCN)C(=O)N[C@@H](CCC(N)=O)C(=O)N[C@@H](CC(C)C)C(=O)N[C@@H](C)C(=O)N[C@@H](C)C(=O)NC1CNCC1C(=O)N[C@@H](CCCCN)C(=O)N[C@@H](Cc1ccc(O)cc1)C(=O)NC1CCCC1C(=O)N[C@@H](CC(N)=O)C(=O)N[C@@H](CC(=O)O)C(=O)N[C@@H](CC(C)C)C(=O)N[C@@H](CCCCN)CC(=O)N[C@@H](CCCCN)C(=O)NCC(=O)NCCC(=O)N[C@H](C(N)=O)[C@@H](C)O)[C@@H](C)O)[C@@H](C)O)C(C)C (stereo partly drawn) [LBT-V207, Ac-HxDAVFTENYTKLRKQLAAzKYxNDLkKGgT] (Ac-H[X3]DAVFTENYTKLRKQLAA[ξ(4-Aminopyrrolidine-3-CO)]KY[X3]NDL[β3hK]KG[βAla]T-NH2)

Second part, the compound before the results:

Row | Compound | EC50 (VIPR1 (vpac1); [1]) [nM] | EC50 (VIPR2 (vpac2); [1]) [nM] | EC50 (VIPR1 (vpac1); [2]) [nM] | EC50 (VIPR2 (vpac2); [2]) [nM]
4 | CC(=O)N[C@@H](Cc1c[nH]cn1)C(=O)NC1CCCC1C(=O)N[C@@H](CC(=O)O)C(=O)N[C@@H](C)C(=O)NC1CCCC1C(=O)N[C@@H](Cc1ccccc1)C(=O)N[C@H](C(=O)N[C@@H](CCC(=O)O)C(=O)N[C@@H](CC(N)=O)CC(=O)N[C@H](CC(=O)N[C@H](C(=O)N[C@@H](CCCCN)C(=O)N[C@@H](CC(C)C)C(=O)N[C@@H](CCCNC(=N)N)C(=O)N[C@@H](CCCCN)C(=O)N[C@@H](CCC(N)=O)C(=O)N[C@@H](CC(C)C)C(=O)N[C@@H](C)C(=O)N[C@@H](C)C(=O)NC1CNCC1C(=O)N[C@@H](CCCCN)C(=O)N[C@@H](Cc1ccc(O)cc1)C(=O)NC1CCCC1C(=O)N[C@@H](CC(N)=O)C(=O)N[C@@H](CC(=O)O)C(=O)N[C@@H](CC(C)C)C(=O)N[C@@H](CCCCN)CC(=O)N[C@@H](CCCCN)C(=O)NCC(=O)NCCC(=O)N[C@H](C(N)=O)[C@@H](C)O)[C@@H](C)O)Cc1ccc(O)cc1)[C@@H](C)O (stereo partly drawn) [LBT-V216, Ac-HxDAxFTEnyTKLRKQLAAzKYxNDLkKGgT] (Ac-H[X3]DA[X3]FTE[β3hN][β3hY]TKLRKQLAA[ξ(4-Aminopyrrolidine-3-CO)]KY[X3]NDL[β3hK]KG[βAla]T-NH2) |  |  | 932 | 95.6
5 | CC(=O)N[C@@H](Cc1c[nH]cn1)C(=O)N[C@@H](CO)C(=O)N[C@@H](CC(=O)O)C(=O)N[C@@H](C)C(=O)N[C@H](C(=O)N[C@@H](Cc1ccccc1)C(=O)N[C@H](C(=O)N[C@@H](CCC(=O)O)C(=O)N[C@@H](CC(N)=O)C(=O)N[C@@H](Cc1ccc(O)cc1)C(=O)N[C@H](C(=O)N[C@@H](CCCCN)C(=O)N[C@@H](CC(C)C)C(=O)N[C@@H](CCCNC(=N)N)C(=O)N[C@@H](CCCCN)C(=O)N[C@@H](CCC(N)=O)C(=O)N[C@@H](CC(C)C)C(=O)N[C@@H](C)C(=O)NC1CCCC1C(=O)N[C@@H](CCCCN)C(=O)N[C@@H](CCCCN)C(=O)N[C@@H](Cc1ccc(O)cc1)C(=O)NC1CCCC1C(=O)N[C@@H](CC(N)=O)C(=O)N[C@@H](CC(=O)O)C(=O)N[C@H](CC(=O)N[C@@H](CCCCN)C(=O)N[C@@H](CCCCN)C(=O)NCC(=O)NCCC(=O)N[C@H](C(N)=O)[C@@H](C)O)CC(C)C)[C@@H](C)O)[C@@H](C)O)C(C)C (stereo partly drawn) [LBT-V201, Ac-HSDAVFTENYTKLRKQLAxKKYxNDlKKGgT] (Ac-HSDAVFTENYTKLRKQLA[X3]KKY[X3]ND[β3hL]KKG[βAla]T-NH2) |  |  | 9.09 | 104
6 | CC(=O)N[C@@H](Cc1c[nH]cn1)C(=O)NC(C)(C)C(=O)N[C@@H](CC(=O)O)C(=O)N[C@@H](C)C(=O)N[C@H](C(=O)N[C@@H](Cc1ccccc1)C(=O)N[C@H](C(=O)N[C@@H](CCC(=O)O)C(=O)N[C@@H](CC(N)=O)C(=O)N[C@@H](Cc1ccc(O)cc1)C(=O)N[C@H](C(=O)N[C@@H](CCCCN)C(=O)N[C@@H](CC(C)C)C(=O)N[C@@H](CCCNC(=N)N)C(=O)N[C@@H](CCCCN)C(=O)N[C@@H](CCC(N)=O)C(=O)N[C@@H](CC(C)C)C(=O)N[C@@H](C)C(=O)N[C@@H](C)C(=O)NC1CNCC1C(=O)N[C@@H](CCCCN)C(=O)N[C@@H](Cc1ccc(O)cc1)C(=O)NC1CCCC1C(=O)N[C@@H](CC(N)=O)C(=O)N[C@@H](CC(=O)O)C(=O)N[C@@H](CC(C)C)C(=O)N[C@@H](CCCCN)CC(=O)N[C@@H](CCCCN)C(=O)NCC(=O)NCCC(=O)N[C@H](C(N)=O)[C@@H](C)O)[C@@H](C)O)[C@@H](C)O)C(C)C (stereo partly drawn) [LBT-V204, Ac-HBDAVFTENYTKLRKQLAAzKYxNDLkKGgT] (Ac-H[Aib]DAVFTENYTKLRKQLAA[ξ(4-Aminopyrrolidine-3-CO)]KY[X3]NDL[β3hK]KG[βAla]T-NH2) |  |  | 516 | 0.529
7 | CC[C@H](C)[C@H](NC(=O)[C@H](C)NC(=O)[C@H](CC(N)=O)NC(=O)C[C@H](CC(C)C)NC(=O)[C@H](Cc1ccc(O)cc1)NC(=O)[C@H](CCCCN)NC(=O)[C@H](CCCCN)NC(=O)C[C@@H](NC(=O)[C@H](C)NC(=O)[C@H](CC(C)C)NC(=O)[C@H](CCC(N)=O)NC(=O)C[C@H](CCCCN)NC(=O)[C@H](CCCNC(=N)N)NC(=O)[C@H](CC(C)C)NC(=O)[C@H](CCCNC(=N)N)NC(=O)C[C@@H](NC(=O)[C@H](Cc1ccc(O)cc1)NC(=O)[C@H](CC(N)=O)NC(=O)[C@H](CC(=O)O)NC(=O)[C@@H](NC(=O)[C@H](Cc1ccccc1)NC(=O)C1CCCC1NC(=O)[C@H](C)NC(=O)[C@H](CC(=O)O)NC(=O)C1CCCC1NC(=O)[C@@H](N)Cc1c[nH]cn1)[C@@H](C)O)[C@@H](C)O)C(C)C)C(=O)N[C@H](CC(=O)N[C@@H](CC(N)=O)C(N)=O)CC(C)C (stereo partly drawn) [LBT-V103, HxDAxFTDNYtRLRkQLAvKKYlNAIlN] (H-H[X3]DA[X3]FTDNY[β3hT]RLR[β3hK]QLA[β3hV]KKY[β3hL]NAI[β3hL]N-NH2) | 0.357 | 79.6 |  | 
